Variants at the floor of the assay are shown more often than the library holds them.
B1: TPR 5TU (parent)
chain: GGAUCUUCUCGAUCUAACAAAAAAGACAAAUCUGCCACAAAGCUUGAGAGCAUCUUCGGAUGCAGAGGCGGCAGCCUUCGGUGGCGCGAUAGCGCCAACGUUCUCAACUAUGACACGCAAAACGCGUGCUCCGUUGAAUGGAGUUUAUCAUG

Variants of: B1
Experiment: polymerase ribozyme fitness, log enrichment relative to wild type (log ratio); higher = more active; in vitro selection for triplet polymerase activity
Summary of the method: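 Fitness measures genotype enrichment against wild-type enrichment on a logarithmic scale, with inverse-variance-weighted averaging of replicates. The logarithm is base 2, and genotypes were kept only with ≥10 input reads and ≥1 read per output in Illumina sequencing. The sequenced libraries came from one triplicate in vitro selection round, including frozen incubation at −7 °C, of PCR-built, transcribed mutant libraries of each subunit of a heterodimeric triplet polymerase ribozyme.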

| Variant | polymerase ribozyme fitness (log ratio) |
| --- | --- |
| U6G C35G G94A G140C | ≤ -4.2 |
| U6G C35U C75A A98G A121U | ≤ -4.2 |
| U6G C38U U45A G50C U55A G65U G74A C93U | ≤ -4.2 |
| U6G C57G C85U A98U | -1.17 |
| U6G C63G A64C C85G C95G U101G | ≤ -4.2 |
| U6G C75A U82C G84U C85G C87U | ≤ -4.2 |
| U6G C75G U90A G92U | ≤ -4.2 |
| U6G C85U | -0.35 |
| U6G C93U A122U G133C G140A | ≤ -4.2 |
| U6G G34C A52U A89G C93A A107U A115U A150C | ≤ -4.2 |
| U6G G46A G50A C85A U102G | ≤ -4.2 |
| U6G G46A U56C C76G G81C A91C A106G A137U U144C U151A | ≤ -4.2 |
| U6G G46C A89U G94A A115U G126U U130G C149A | ≤ -4.2 |
| U6G G100A A107U A113U | ≤ -4.2 |
| U6G G128U | -3.77 |
| U6G G141A | 0.243 |
| U6G U7A A49C G81C C85U A98U U104C | ≤ -4.2 |
| U6G U7C A21U C75U C93G A98U | ≤ -4.2 |
| U6G U7C U55A U135A | -4.01 |
| U6G U9C A12C U45A A73U C75G C76A C93U | ≤ -4.2 |
| U6G U9C G11U C18G A19C G46C C76G G92U C108A C118U A119G G141U | ≤ -4.2 |

| Variant | polymerase ribozyme fitness (log ratio) |
| --- | --- |
| U6G U9G A20G G84A U130G G143U | ≤ -4.2 |
| U6G U13A A52G G65A G83U C116A | ≤ -4.2 |
| U6G U13A C27G G94A C99G | ≤ -4.2 |
| U6G U13C A19G U45A A52U C79U C87A | ≤ -4.2 |
| U6G U13G A16G C85G G86A A142G | ≤ -4.2 |
| U6G U13G U33C C75U C96U | ≤ -4.2 |
| U6G U13G U44A A60G C69G C93A C118A | ≤ -4.2 |
| U6G U15G A30G A49U C93G U109C | ≤ -4.2 |
| U6G U31G G84U | -0.345 |
| U6G U45A A73G G86C C129A A150G | ≤ -4.2 |
| U6G U53C U55G A64G A91U | ≤ -4.2 |
| U6G U55C C76A G83U A89U C95G C99U | ≤ -4.2 |
| U6G U77A G83U U102G | ≤ -4.2 |
| U7A A12C U33G G74U C93U A107U A120C | ≤ -4.2 |
| U7A A12G A23G U53A G92U C118A G140U | ≤ -4.2 |
| U7A A12U C72A C93U C114A | ≤ -4.2 |
| U7A A16C A29C G83U A106U C116A | ≤ -4.2 |
| U7A A17C A41C U55A G58C G59A A91U A137C U145A | ≤ -4.2 |
| U7A A17U A19C C38U G58U G86A G92C | ≤ -4.2 |
| U7A A19C U53A C54U C76G C85U C149A | ≤ -4.2 |
| U7A A19U A22U G68A C85G | ≤ -4.2 |

| Variant | polymerase ribozyme fitness (log ratio) |
| --- | --- |
| U7A A20G C35U A47G G83A C96A | ≤ -4.2 |
| U7A A21U G25U U44A A49C C54A C63G C85U G86U C99G | ≤ -4.2 |
| U7A A22U A40G U53C C57U A73C G83U A120U | ≤ -4.2 |
| U7A A22U A64G C79A G81A C85G | ≤ -4.2 |
| U7A A23C G50U G59A A73C G86U C95G C108U | ≤ -4.2 |
| U7A A26C G74A U127A | ≤ -4.2 |
| U7A A28C A52C C103U | ≤ -4.2 |
| U7A A29U C35U A66C U82G A113U | -3.86 |
| U7A A37C A47C C85U C93A C95U A97U C108U | ≤ -4.2 |
| U7A A47C G83C G88U A113G C116A | ≤ -4.2 |
| U7A A47C G88A C99U | ≤ -4.2 |
| U7A A49C C51U C87U C108G | ≤ -4.2 |
| U7A A49G C85G A91U G126C | ≤ -4.2 |
| U7A A49G G50A U53A G58A G83C U144G | ≤ -4.2 |
| U7A C8A A52C U56A G68C G84A G92U C96U C108U G124C U144A U145C | ≤ -4.2 |
| U7A C8G A89C C95G | ≤ -4.2 |
| U7A C10U C36A U55A U56G G71A C85G | ≤ -4.2 |
| U7A C14G U15G G59U U78G G84A | ≤ -4.2 |
| U7A C14U C43U U78G G84C A115U A142C | ≤ -4.2 |
| U7A C38A U56A C72G U77G U82G A107U A110C | ≤ -4.2 |
| U7A C38U C93U A137G U148C | ≤ -4.2 |

| Variant | polymerase ribozyme fitness (log ratio) |
| --- | --- |
| U7A C43U A49C G80C U90G G94A C131U | ≤ -4.2 |
| U7A C43U A49G A110G | ≤ -4.2 |
| U7A C63U G86C C87A A106G | ≤ -4.2 |
| U7A C75A C116U | ≤ -4.2 |
| U7A C76A C96A G133C | ≤ -4.2 |
| U7A G11A A12C U13A U45C C51U A60C C76G G86U G92C U135C | ≤ -4.2 |
| U7A G25A G50U G84U | ≤ -4.2 |
| U7A G25U C27G U44G G86A A115U U144C U148C | ≤ -4.2 |
| U7A G34A C35G G59U C87U C93G G128C | ≤ -4.2 |
| U7A G42A C75G C85U | ≤ -4.2 |
| U7A G58C U134G | ≤ -4.2 |
| U7A G71A G84A C99U U104G C108G | ≤ -4.2 |
| U7A G94A | -3.07 |
| U7A U9A A98G A121G | ≤ -4.2 |
| U7A U53A U56A | ≤ -4.2 |
| U7C A12G C96U | -2.17 |
| U7C A16C A91U A120C A138C | ≤ -4.2 |
| U7C A19C C57G C85U C96U U148A | ≤ -4.2 |
| U7C A19C G94C G124C A142U G143U | ≤ -4.2 |
| U7C A20G G25U A39U A73U A89C G126U U148C | ≤ -4.2 |

From the RNAGym collection of RNA variant scans (doi:10.1073/pnas.2313332121)
